According to PubChem BioAssay AID493208 (National Center for Advancing Translational Sciences (NCATS), 2011):
In all, about 44,000 compounds went through this assay and about 340 (0.77%) were called active. Roughly 5% stayed inconclusive and do not appear here. Calls come from the whole dose curve; as a rule, active = well fitted inhibition curve with a large enough effect; inconclusive = small, poorly fitted or top-dose-only effect; inactive = flat fitted curve, though single readings scatter. The list shows a part of the results.

assay: Acumen qHTS Assay for Inhibitors of the mTORC1 Signaling Pathway in MEF (Tsc2-/-, p53-/-) Cells: Sytravon; settings: phospho-rpS6 immunofluorescence/PI, 24 h; series mostly up to 38.3 µM; activity change, negative = inhibition: at the top concentration;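 note: plate controls were DMSO for no effect and rapamycin for full effect; nearly all actives have a fitted effect of over 50% in size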
Method in brief: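 Plate MEFs (Tsc2-/-, p53-/-, empty vector) in DMEM/10% FBS; after 24 h add compound, incubate 24 h at 37 degree Celsius; fix in PFA/TX-100, block, stain phospho-rpS6 and 10 uM PI; scan at 488 nm; report % positive cells.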

Activity change, negative = inhibition, inactive:
CCCCNC(=O)CC1N=C2c3ccccc3N=C(SCC(=O)NCc3ccccc3Cl)N2C1=O (stereo unspecified) 7.4%, CCOc1ccc(NC(=O)Cn2cc(C(=O)c3ccccc3)c(=O)c3cc4c(cc32)OCCO4)cc1 4.5%, COC(=O)c1ccc(NC(=O)CC2C(=O)N(c3ccc(C)cc3)C(=O)N2Cc2ccc(OC)cc2)cc1 (stereo unspecified) -4.3%, O=C(COc1ccccc1)Nc1nnc(SCc2cc(=O)c3ccccc3[nH]2)s1 5.82%, Clc1ccc(-c2noc(-c3cccnc3N3CCN(c4ccccc4)CC3)n2)cc1 0.778%, Cc1ccc(C)c(N2CCN(C(=O)c3nn(C)c4c3CS(=O)(=O)c3ccccc3-4)CC2)c1 5.52%, Cc1ccn2c(Nc3ccccc3C)c(-c3cccnc3)nc2c1 2.11%, CCN(C(=O)CSc1nc2ccccc2n1CC(=O)N1CCCC(C)C1)c1ccccc1 (stereo unspecified) 0.791%, CCOc1ccc(CCNC(=O)C2CCN(Cc3nc(-c4ccccc4C)oc3C)CC2)cc1OCC 1.42%, Cn1c(=O)c(=O)n(C)c2cc(S(=O)(=O)Nc3ccc(Cl)c(C(F)(F)F)c3)ccc21 5.67%, Fc1ccc(Nc2c(-c3ccco3)nc3ccccn23)cc1 -1.47%, Cc1ccc(C2c3[nH]c4ccccc4c3CCN2C(=O)CCc2ccccc2)cc1 (stereo unspecified) -11.8%, Cc1ccc(NC(=O)C2CCC(CNS(=O)(=O)c3ccc4c(c3)C(C)(C)C(=O)N4C)CC2)cc1 (stereo unspecified) -8.42%, CC(C)(C)c1ccc(C(=O)N2CCN(Cc3cc(=O)n4nc(-c5ccccc5F)sc4n3)CC2)cc1 -19.1%, CCOc1ccc(CNC(=O)Cc2ccc(NC(=O)N3CCCCc4ccccc43)cc2)cc1OC -9.34%, COc1cc(OC)c(NC(=O)Cn2cnc3nc4c(cc3c2=O)CCCC4)cc1Cl 2.05%, Cc1cc(=O)oc2cc(OCC(=O)Nc3c(C(C)C)cccc3C(C)C)ccc12 10.3%, Clc1ccc(-c2nnn3c2nc(NCc2ccc4c(c2)OCO4)c2ccccc23)cc1 -7.22%, COc1ccc(CCn2c(=O)c3cccnc3n(CC(=O)Nc3c(C)cc(C)cc3C)c2=O)cc1OC -4.64%, CCCc1cc(N2CCN(c3ccc(OC)cc3)CC2)n2cnnc2n1 -9.71%, COc1cc(NC(=O)CCNC(=O)Cn2cnc3ccccc3c2=O)cc(OC)c1OC -0.262%, Cc1cc(C)c(NC(=O)Nc2csc3c2CCCC3)c(C)c1 -2.45%, O=C(CCCCCn1c(=O)[nH]c2ccccc2c1=O)NCc1ccc(Cl)cc1 0.368%, CCC(=O)N1CCc2cc(Br)cc(S(=O)(=O)NCc3ccccc3)c21 -11.6%, COc1ccccc1-c1nc(SCC(=O)Nc2ccc(C)c(C)c2)n[nH]1 -13.9%, CSc1ccc(CCNC(=O)C2CCN(c3ncnc4c3nc3n4CCCCC3)CC2)cc1 2.79%, CCN(CC)C(=O)COc1ccc(-c2nnc(Nc3ccc(OC)c(C(=O)NC)c3)c3ccccc23)cc1 -20.6%, Cc1sc2ncn(CC(=O)N(C)c3cccc(C(F)(F)F)c3)c(=O)c2c1S(=O)(=O)N1CCN(c2ncccn2)CC1 -19.1%, Fc1ccc(-n2ncc3c(N4CCN(c5ccccc5F)CC4)ncnc32)cc1 0%, Cc1cc(=O)oc2c3c(ccc12)OCN(Cc1ccc(Cl)cc1)C3 0.115%, CCc1nn2c(=O)cc(COC(=O)c3ccccc3NC(=O)c3cccs3)nc2s1 0%, CCn1nc(C)c2c(-c3ccccc3)cc(=O)n(C(C)C(=O)NCCc3ccccc3)c21 (stereo unspecified) 5.73%, CCC1CCCCN1C(=O)Cn1c(=O)n(CCCCCC(=O)NCc2ccccc2Cl)c(=O)c2sccc21 (stereo unspecified) 0.544%, O=C(NCCc1ccc(Cl)cc1)c1ccc2c(c1)N(Cc1cccc(Cl)c1)C(=O)c1ccccc1S2(=O)=O 0.397%, Fc1ccccc1Nc1ncnc2c1nc1n2CCCCC1 -4.46%, Cc1cccc(CCNC(=O)c2c[nH]c3ccc(S(=O)(=O)Nc4ccccc4F)cc3c2=O)c1 0.551%, COC(=O)c1ccc(NC(=O)CC2C(=O)N(c3cccc(C)c3)C(=O)N2C2CCCC2)cc1 (stereo unspecified) 0.518%, Fc1ccc(Cn2c(-c3cccc(Br)c3)nc3ccccc32)cc1 -2.65%, CCOc1ccc(CCNC(=O)Cn2nc(CC)n3c(cc4sccc43)c2=O)cc1 0.374%, O=C(NCCc1nc2ccccc2n1CCCOc1ccc(Cl)cc1)C1CCCCC1 4.61%, O=C(Nc1c2c(nn1-c1ccc(Cl)cc1)CS(=O)(=O)C2)c1ccccc1F 16%, Cc1nn2c(C)c(C(=O)NCC(C)c3ccccc3)cnc2c1-c1ccccc1 (stereo unspecified) 3.63%, COc1ccc(C2NC(=O)N(C)C3=C2C(=O)N(c2ccc(F)cc2)C3)cc1 (stereo unspecified) -14.9%, COc1ccc(C(=O)Nc2noc3ccccc23)cc1 3.42%, Cc1cccc(NC(=O)CSc2nccn2-c2cccc(Cl)c2)c1C -0.0367%, CCOc1cc(C2c3c(-c4ccccc4O)n[nH]c3C(=O)N2Cc2cccnc2)ccc1O (stereo unspecified) 3.25%, CCC(C(=O)NCc1ccccc1Cl)n1nc(C)c2sc3ccccc3c2c1=O (stereo unspecified) 5.07%, Cc1ccc(NC(=O)c2sc(-n3nc(C)c(Cc4ccc5c(c4)OCO5)c3C)nc2C)cc1C -0.415%, O=C(CCCn1c(=O)c2sccc2n(Cc2cccc(Cl)c2)c1=O)NCc1ccc2c(c1)OCO2 -14.7%, CCOC(=O)CN1C(=O)c2cccnc2Oc2ccccc21 -0.82%, Cc1cc(C)cc(NC(=O)CSCc2cc(=O)c3ccc(C)c(C)c3[nH]2)c1 -14.3%, CNS(=O)(=O)c1cn(CC(=O)N2CCN(c3cc(C)ccc3C)CC2)cc1S(=O)(=O)NC -2.38%, O=c1cc(-c2ccccc2)n2c(SCc3cccc([N+](=O)[O-])c3)nnc2[nH]1 -0.85%, COc1ccc(NC(=O)CSc2nc(-c3ccco3)nc3cc(=O)[nH]n23)cc1 -5.44%, CCOc1cc(C(=O)N2CCC(c3ccncc3)CC2)cc(OCC)c1OCC -0.868%, CCOc1ccc(NC(=O)CN2CCN(CC(=O)Nc3ccccc3OCC)CC2)cc1 0.735%, Cc1cc(C(=O)Nc2c(C)nn(Cc3ccc(F)cc3)c2C)no1 3.28%, NC(=O)C1CCN(C(=O)Cn2c(-c3cccs3)cc3ccccc32)CC1 -0.8%, CCCCN(c1ccccc1)S(=O)(=O)c1ccc2c(c1)CC(C)N2C(=O)C1CC1 (stereo unspecified) -16.8%, CCc1ccccc1Nc1nc2ccccc2n2cnnc12 -11.7%, COc1ccc(CCNC(=O)CCn2c(=O)c3cccn3c3cccnc32)cc1OC 0.774%, CC1CN(S(=O)(=O)c2ccc3c(c2)NC(=O)CC(=O)N3)c2ccccc2O1 (stereo unspecified) -1.91%, COc1ccccc1-n1nc(-c2ccccc2)c2cnc3cc(C(F)(F)F)ccc3c21 -1.21%, CCOC(=O)c1ccc(NC(=O)COC(=O)c2cn(CC)c3nc(C)ccc3c2=O)cc1 -3.63%, Cc1cccc(C)c1OC(=O)CSc1nnc(-c2cccs2)o1 6.66%, COc1ccc(-c2oc3ncn4nc(-c5ccccc5C)nc4c3c2-c2ccc(OC)cc2)cc1 14.6%, Cc1ccc(C)c(CN2C(=O)c3ccccc3S(=O)(=O)c3ccc(C(=O)N4CCN(c5ccccc5F)CC4)cc32)c1 2.35%, O=S(=O)(Nc1ccc(-c2ccc(N3CCCC3)nn2)cc1)c1cccc(C(F)(F)F)c1 -10.6%, COc1ccc(CNC(=O)CCc2nnc3n(CC(C)C)c(=O)c4ccccc4n23)cc1 0.493%, COc1ccc(C)cc1NS(=O)(=O)c1ccc2[nH]c(=O)c(=O)[nH]c2c1 -13.8%, CCn1ccc2cc(S(=O)(=O)N3CCCN(C(=O)NCCOC)CC3)ccc21 -4.65%, CCS(=O)(=O)N1CCc2cc(C(=O)Nc3cc(C(F)(F)F)ccc3Cl)ccc21 1.85%, COc1cccc(NC(=O)Cn2c(=O)n(CCCCC(=O)NCCc3ccccc3)c(=O)c3ccccc32)c1 5.39%, CCOC(=O)C1=C(CN2CCN(c3cc(C)ccc3C)CC2)NC(=O)NC1c1ccc(Cl)cc1 (stereo unspecified) -0.61%, O=c1c2ccccc2n(Cc2ccccc2F)c(=O)n1-c1cccc(F)c1 -4.79%, Cc1ccc(C(=O)Nc2onc3c2CCCC3)cc1 -8.34%, O=C(CSc1nnc2ccc3ccccc3n12)c1ccc(F)cc1 -9.34%, COc1ccccc1CNC(=O)c1cnc2sc(N3CCCCCC3)nn2c1=O -18.1%, Cc1cccc(NC(=O)c2ccc(-c3nc(CSc4ccccc4)c(C)o3)cc2)c1C 0.613%, Cc1nc2sc(C(N)=O)c(N)c2c(-c2ccc(Br)cc2)c1C(=O)Nc1ccc(Cl)cc1 0%, CSc1ccc(CNC(=O)CCn2c(=O)c3cccn3c3ccc(F)cc32)cc1 0.0257%, Cc1ccccc1C(=O)Nc1ccc2c(c1)CCCN2C(=O)c1cccs1 0%, COc1ccc(C(=O)N2CCC(c3nc(-c4ccc(S(=O)(=O)N5CCCC5)cc4)no3)CC2)cc1 -5.35%, COC(=O)c1cc2occc2n1Cc1cccc(C)c1 5.26%, COc1ccc(C(=O)Nc2ccc(-c3nc4ccccc4s3)cc2C)cc1Cl -6.14%, COCCNC(=O)CCN1C(=O)c2cccnc2Oc2ccc(C)cc21 -9.28%, NC(=O)Cn1c(=O)n(CCCCCC(=O)NCc2ccccc2)c(=O)c2sccc21 6.12%, Cc1ccc(-n2nc(C(=O)Nc3ccc(C)c(F)c3)c3c4ccccc4n(C)c3c2=O)cc1 5.8%, CC(=O)Nc1nonc1-c1nnc(SCC(=O)Nc2ccc(C)c(Cl)c2)n1-c1ccccc1 -24.5%, COc1ccc(-n2c(=O)c3ccccc3n(Cc3ccccc3C)c2=O)c(OC)c1 5.8%, CCOc1ccc(C(=O)c2cnc3ccc(Cl)cc3c2S(=O)(=O)c2ccc(C)cc2)cc1 -2.86%, CCc1ccccc1Nc1nc2cc(Cl)c(Cl)cc2nc1-n1nc(C)cc1C 5.86%, Cc1ccc(-n2nc(CO)c(C(=O)NCCCc3ccccc3)n2)cc1 0.759%, CC(=O)Nc1ccc(NS(=O)(=O)c2c(C)nc3sccn3c2=O)cc1 3.74%, Cc1ccc(-n2ncc3c(Nc4ccccc4C)ncnc32)cc1 -5.23%, CCOc1ccc(CNC(=O)C2CCCN(S(=O)(=O)N(C)c3ccc(F)cc3)C2)cc1OC (stereo unspecified) -2.62%
